The densities may have been worked out from excess volumes.
Assay: xn = mol fraction of the nth substance listed
Conditions: 101.3 kPa

CC[n+]1ccn(C)c1.O=S(=O)([N-]S(=O)(=O)C(F)(F)F)C(F)(F)F + CC1COC(=O)O1
mass density [kg/m3]
Conditions	x1 = 0.1	x1 = 0.2127	x1 = 0.3007	x1 = 0.4227	x1 = 0.5146	x1 = 0.6015	x1 = 0.7004	x1 = 0.8098	x1 = 0.8868	x1 = 1
288.15 K	1290.6	1354.2	1391.4	1430.9	1454.3	1472.6	1490.3	1506.5	1516.5	1529.2
293.15 K	1285.2	1349	–	1425.7	1449	1467.4	1485.2	1501.4	1511.4	–
298.15 K	1279.9	–	1380.8	1420.5	1443.8	1462.2	–	1496.3	1506.3	1519
303.15 K	–	1338.4	1375.6	–	1438.7	1457.1	1474.9	1491.2	1501.2	1513.9
308.15 K	1269.4	1333.2	1370.4	–	1433.5	–	1469.8	1486.1	1496.1	–
313.15 K	1264.1	1327.9	1365.2	1404.9	1428.4	1446.8	1464.7	–	1491.1	–
318.15 K	1258.8	1322.7	–	1399.8	1423.2	–	–	1476	1486	1498.9
323.15 K	1253.6	1317.5	1354.8	1394.6	1418.1	–	1454.5	1471	1481	1493.9
328.15 K	1248.4	–	1349.6	–	–	1431.6	1449.5	1465.9	1476	1488.9
333.15 K	–	1307.1	–	1384.4	1408	1426.5	–	1460.9	1471	1484
338.15 K	–	1302	1339.4	1379.3	1402.9	1421.5	1439.5	1456	1466.1	1479
343.15 K	1232.7	1296.8	1334.2	1374.2	–	1416.5	1434.5	–	1461.2	1474.1
348.15 K	–	–	1329.1	1369.1	1392.8	1411.4	1429.5	1446.1	1456.2	1469.2

CCCC[n+]1ccn(C)c1.O=S(=O)([N-]S(=O)(=O)C(F)(F)F)C(F)(F)F + CC1COC(=O)O1
x1 = 1
Conditions	mass density [kg/m3]
293.15 K	1441.1
298.15 K	1436.3
303.15 K	1431.5
313.15 K	1421.9
318.15 K	1417.2
323.15 K	1412.4
333.15 K	1403
338.15 K	1398.3
343.15 K	1393.7
348.15 K	1389
